Measurements published in paper PMC4336329 (PLoS ONE, 2015).
Screen size: about 310,000 compounds; about 2,200 (0.71%) showed an effect of 50% or more. Effects have a minus sign here. The list shows a part of the results.

What follows are molecules tested against human ether-à-go-go-related gene (hERG) potassium channel (human, UniProt Q12809) (assay: primary screen, population patch clamp on CHO cells stably expressing hERG).
human ether-à-go-go-related gene (hERG) potassium channel, sequence (Q12809 whole entry, looked up): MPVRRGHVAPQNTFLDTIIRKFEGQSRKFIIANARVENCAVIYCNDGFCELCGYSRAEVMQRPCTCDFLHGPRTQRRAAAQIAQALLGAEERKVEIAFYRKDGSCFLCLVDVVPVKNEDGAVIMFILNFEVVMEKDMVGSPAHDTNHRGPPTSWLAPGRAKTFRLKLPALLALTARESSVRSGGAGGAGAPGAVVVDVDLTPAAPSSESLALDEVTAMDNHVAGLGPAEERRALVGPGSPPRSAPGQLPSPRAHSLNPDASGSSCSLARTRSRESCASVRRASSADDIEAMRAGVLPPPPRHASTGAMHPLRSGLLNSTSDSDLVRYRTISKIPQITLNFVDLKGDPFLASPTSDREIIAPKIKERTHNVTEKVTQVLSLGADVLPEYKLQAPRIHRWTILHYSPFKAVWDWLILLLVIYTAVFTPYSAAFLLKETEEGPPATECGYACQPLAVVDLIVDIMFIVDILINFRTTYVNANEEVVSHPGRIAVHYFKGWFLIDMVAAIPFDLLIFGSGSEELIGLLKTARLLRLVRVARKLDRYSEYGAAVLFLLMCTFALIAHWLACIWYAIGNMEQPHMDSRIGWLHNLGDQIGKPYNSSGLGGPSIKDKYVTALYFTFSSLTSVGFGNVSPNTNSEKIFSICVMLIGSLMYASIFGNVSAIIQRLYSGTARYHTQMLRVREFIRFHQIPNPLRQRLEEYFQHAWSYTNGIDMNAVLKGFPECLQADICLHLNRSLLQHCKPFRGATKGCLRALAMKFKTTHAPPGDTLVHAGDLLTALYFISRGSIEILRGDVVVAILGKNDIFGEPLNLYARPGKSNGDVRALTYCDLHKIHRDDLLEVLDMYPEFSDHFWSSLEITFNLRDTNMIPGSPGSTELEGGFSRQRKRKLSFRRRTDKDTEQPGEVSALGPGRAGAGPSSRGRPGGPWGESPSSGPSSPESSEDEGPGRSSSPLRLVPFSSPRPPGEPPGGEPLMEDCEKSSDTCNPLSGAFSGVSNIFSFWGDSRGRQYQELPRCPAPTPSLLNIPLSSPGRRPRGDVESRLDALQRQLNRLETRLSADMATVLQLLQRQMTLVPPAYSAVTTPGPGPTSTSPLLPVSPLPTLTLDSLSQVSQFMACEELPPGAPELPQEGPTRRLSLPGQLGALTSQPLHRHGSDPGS
With `Cc1ccc(C)c(NC(=S)NNC(=O)c2cc3c(s2)CCC(C)C3)c1` (stereo not shown) the “hERG current change (%, negative = inhibition) at 1uM” value was 4.05%.
In the case of `CCC1CCCCN1CCCNC(=O)Cn1ncc2c([nH]c3ccc(C)cc32)c1=O` (stereo not shown), the “hERG current change (%, negative = inhibition) at 1uM” value was 4.73%.
In the case of `CCOC(=O)N1CCC(N2CCCC(C(=O)c3cccc(OC)c3)C2)CC1` (stereo not shown), the “hERG current change (%, negative = inhibition) at 1uM” value was -13.2%.
In the case of `Cc1nc(SCC(=O)Nc2ccc(F)cc2)c2oc3ccccc3c2n1`, the “hERG current change (%, negative = inhibition) at 1uM” value was 13.5%.
With `CCCCn1c(N)c(N(CCOC)C(=O)c2ccc3c(c2)C(=O)N(c2cc(C)ccc2C)C3=O)c(=O)[nH]c1=O` the “hERG current change (%, negative = inhibition) at 1uM” value was -2.7%.
For `COc1ccccc1NC(=O)C(C)OC(=O)CCNS(=O)(=O)c1ccc(C)c(C)c1` (stereo not shown), the “hERG current change (%, negative = inhibition) at 1uM” value was 13.3%.
For `Cc1ccc(/C=C(\NC(=O)c2ccccc2)C(=O)N2CCCCC2)cc1`, the “hERG current change (%, negative = inhibition) at 1uM” value was 2.71%.
`O=C(Cn1c(=O)c2c(ncn2Cc2ccccc2)n(Cc2ccccc2)c1=O)N1CCc2ccccc21` was tested, and the “hERG current change (%, negative = inhibition) at 1uM” value was 6.16%.
`Cc1nc2nc(Cc3ccccc3)[nH]n2c(=O)c1Cl` was tested, and the “hERG current change (%, negative = inhibition) at 1uM” value was 9.02%.
In the case of `CCCCOc1cc(C)nc(NCc2ccccc2)n1`, the “hERG current change (%, negative = inhibition) at 1uM” value was 0.533%.
With `CCOc1ccc(NC(=S)N(CCN2CCOCC2)Cc2ccc3c(c2)CCCN3CC)cc1` the “hERG current change (%, negative = inhibition) at 1uM” value was 1.94%.
In the case of `CCC(CC)COC(=O)C1=C(C)NC(=O)NC1c1ccccc1Br` (stereo not shown), the “hERG current change (%, negative = inhibition) at 1uM” value was 17.7%.
`O=C(O)c1ccccc1N1C(=O)c2cccc3cccc(c23)C1=O` was tested, and the “hERG current change (%, negative = inhibition) at 1uM” value was 4.32%.
In the case of `COc1cccc(C(=O)Nc2c3c(nn2-c2ccccc2C)CS(=O)C3)c1OC` (stereo not shown), the “hERG current change (%, negative = inhibition) at 1uM” value was 11.1%.
`CCCOc1ccc(C(C(=O)OCCN(CC)CC)c2ccccc2)cc1.O=C(O)C(=O)O` (stereo not shown) was tested, and the “hERG current change (%, negative = inhibition) at 1uM” value was -11.8%.
In the case of `CC1CN(C(=O)c2cc(F)c(F)cc2Cl)CC(C)O1` (stereo not shown), the “hERG current change (%, negative = inhibition) at 1uM” value was 5.11%.
For `CC(C)CNC(=O)COC(=O)c1ccccc1OCC(=O)Nc1ccc(Br)cc1`, the “hERG current change (%, negative = inhibition) at 1uM” value was 3.95%.
In the case of `CC(C(=O)Nc1ccc2c(c1)OCO2)n1cnc2c1c(=O)n(C)c(=O)n2C` (stereo not shown), the “hERG current change (%, negative = inhibition) at 1uM” value was 11.9%.
In the case of `O=c1[nH]c(=O)n(CC2CCCO2)c(O)c1/C=C1\C=Nc2ccccc21` (stereo not shown) [26662360], the “hERG current change (%, negative = inhibition) at 1uM” value was 9.99%.
`O=C(O)CCCNc1ccc(S(=O)(=O)Nc2ccccc2C(=O)O)cc1C(=O)O` was tested, and the “hERG current change (%, negative = inhibition) at 1uM” value was 2.13%.
For `COc1ccc(C(C)(C)C)cc1NC(=O)c1ccc2c(c1)SC1=NS(=O)(=O)CCN12`, the “hERG current change (%, negative = inhibition) at 1uM” value was 13.3%.
For `CCN(CC)CC.CCc1ccc(-n2c(=S)sc3c(=O)n(-c4ccccc4OC)c(=S)[nH]c32)cc1`, the “hERG current change (%, negative = inhibition) at 1uM” value was 6.81%.
For `Cc1cc(NS(=O)(=O)c2cn(C)nc2C)no1`, the “hERG current change (%, negative = inhibition) at 1uM” value was 22.5%.
For `CCN1CCN(C(=O)/C=C\C(=O)O)CC1`, the “hERG current change (%, negative = inhibition) at 1uM” value was 13.2%.
With `C[C@H](NC(=O)c1nc[nH]c1C(=O)NCc1ccccc1)C(=O)OCc1ccccc1` the “hERG current change (%, negative = inhibition) at 1uM” value was 9.57%.
`O=c1cc([O-])nc(SCc2ccccc2)n1-c1ccccc1.[K+]` was tested, and the “hERG current change (%, negative = inhibition) at 1uM” value was 3.07%.
`CC(=O)Nc1ccc(S(=O)(=O)N2CCC(Oc3ccc(-n4cnnn4)cc3)CC2)cc1` was tested, and the “hERG current change (%, negative = inhibition) at 1uM” value was -4.12%.
In the case of `Cn1c(N/N=C/c2ccccc2)nc2sc3c(c2c1=O)CCC3`, the “hERG current change (%, negative = inhibition) at 1uM” value was 3.19%.
With `O=c1c(-c2nnc(SCc3ccc(Cl)c(Cl)c3)o2)cccn1Cc1ccccc1` the “hERG current change (%, negative = inhibition) at 1uM” value was 10.1%.
For `COc1cc(C(C(=O)NC2CCCCC2)N(CCN2CCOCC2)C(=O)C2COc3ccccc3O2)cc(OC)c1OC` (stereo not shown), the “hERG current change (%, negative = inhibition) at 1uM” value was 26.1%.
For `Nc1ccc2c(c1)C(=O)N(CC1CCCO1)C2=O` (stereo not shown), the “hERG current change (%, negative = inhibition) at 1uM” value was 4.67%.
With `CCCSc1nc(C)cc(C)c1S(=O)(=O)c1ccccc1C` the “hERG current change (%, negative = inhibition) at 1uM” value was 15.4%.
With `Cc1ccc(OCCC(=O)Nc2ccc3c(c2)OCO3)cc1` the “hERG current change (%, negative = inhibition) at 1uM” value was 5.07%.
`CC(C)C[C@@H](C(=O)N[C@@H](C(=O)O)c1ccccc1)N1C(=O)N2CCc3c([nH]c4ccccc34)[C@@]2(C)C1=O` was tested, and the “hERG current change (%, negative = inhibition) at 1uM” value was -4.36%.
For `CCN(CC)S(=O)(=O)c1ccc(O)c(C(=O)OCC(=O)Nc2cc(C)c(C)cc2[N+](=O)[O-])c1`, the “hERG current change (%, negative = inhibition) at 1uM” value was 9.25%.
In the case of `COc1ccc(C)cc1NC(=O)CN1C(=O)C(=O)N(C2CCCC2)C1=O`, the “hERG current change (%, negative = inhibition) at 1uM” value was 9.16%.
For `COc1ccccc1NC1=C(C)C(=O)CC1`, the “hERG current change (%, negative = inhibition) at 1uM” value was 12.1%.
For `COC(=O)c1ccc(Oc2nc(NC(C)C)nc(SC)n2)cc1`, the “hERG current change (%, negative = inhibition) at 1uM” value was 8.24%.
For `COc1ccccc1C(=O)N1CCN(c2ccc(N3CCOCC3)nn2)CC1`, the “hERG current change (%, negative = inhibition) at 1uM” value was 5.32%.
With `CCC(CC)NC(=O)COC(=O)c1cccc(C)c1O` the “hERG current change (%, negative = inhibition) at 1uM” value was 7.4%.
With `CCN1CCN(CCNC(=O)CCc2c(C)c3c(C)nn(-c4ccccc4)c3n(C)c2=O)CC1` the “hERG current change (%, negative = inhibition) at 1uM” value was 9.93%.
For `CCCCCCOc1ccc(N2C(=O)CC(N3CCC(C(=O)OCC)CC3)C2=O)cc1` (stereo not shown), the “hERG current change (%, negative = inhibition) at 1uM” value was 9.46%.
With `Cc1ccc(NC(=O)c2ccc(NS(=O)(=O)c3cccc4cccnc34)cc2)cc1` the “hERG current change (%, negative = inhibition) at 1uM” value was 10.9%.
